The values that follow come from article PMC6212790.

This is one part of the list. At the low end of the ranking the order means little.

The target of the test is T1, GST-Rok-C97-191 (UniProt O34857).
T1 sequence: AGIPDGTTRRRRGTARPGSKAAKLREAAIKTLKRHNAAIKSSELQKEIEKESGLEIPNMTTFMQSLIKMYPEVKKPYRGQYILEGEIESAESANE
As to the kind of experiment: protein binding microarray.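 Also: rank score from −0.5 (least bound) to 0.5 (best bound).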 As to conditions: Rok is a gene silencer of Bacillus subtilis; high values mean tight binding; most listed sequences are background and not binding sites; double strand, one strand shown.
For the sequence CGTGGCTA, the binding signal was -0.0449 E-score. On to TACTGATA, for which the binding signal worked out at 0.21 E-score. GATCGGTA registered a binding signal of 0.153 E-score.

As for TAATAAGA, the binding signal turned out to be 0.319 E-score.

For the sequence CGCCCCGC, the binding signal is -0.287 E-score. In the case of TACCAATA, the binding signal came to 0.295 E-score. To ATGTGCGC belongs -0.0507 E-score; to TATCCGAA, 0.154 E-score; to CACAGACA, -0.323 E-score. On to CCTGGCGA, for which the binding signal is -0.142 E-score. Take ACTACATC: the binding signal was 0.334 E-score. The same measure for AATAACGT: 0.198 E-score; for GAGTAGCC: -0.273 E-score. Regarding CCCAGCGC, the binding signal is -0.242 E-score. Consider AACTCCGT, for which the binding signal was -0.062 E-score. Sequence AACGAAAA displayed a binding signal of -0.055 E-score. The sequence GAAATGTC registered a binding signal of 0.165 E-score.

As for CGGATAGA, the binding signal was 0.174 E-score. GCAAAGCC had a binding signal of -0.284 E-score. AGCGTTTC showed a binding signal of -0.225 E-score. The sequence CGGTAAGC showed a binding signal of -0.14 E-score. Take GTACAGCA: the binding signal came out at 0.196 E-score. TCTGAACA showed a binding signal of -0.166 E-score. Turning to ACTAGACT, the binding signal was determined as 0.0777 E-score.

Regarding ACAGCAAA, the binding signal is 0.0357 E-score. The same measure for ATAGAAGA: 0.22 E-score; for ATAGTTGG: 0.00189 E-score; for ACAGCCTG: -0.163 E-score.

With CATAGTTA, the binding signal is 0.275 E-score. For the sequence ACAGCTTC, the binding signal is -0.0851 E-score. ACTACATG registered a binding signal of 0.307 E-score. On to ATAGATAG, for which the binding signal was 0.267 E-score. On to GCGTTACA, for which the binding signal was found to be 0.0506 E-score. To CGAGGGGC belongs -0.307 E-score; to AGCACCAT, -0.0556 E-score; to CTCAAGTC, -0.216 E-score. Take CTTGGAGA: the binding signal was 0.0338 E-score.

For CCACAGGC, the binding signal was -0.141 E-score. In the case of ACCACTGC, the binding signal was -0.0712 E-score. Sequence CGGTTTTA came in with a binding signal of 0.0315 E-score. The same measure for CAGAAACC: -0.0393 E-score; for AATCTGGA: -0.12 E-score. For the sequence TGGAGGAA, the binding signal is -0.00731 E-score. For the sequence GTAACAAC, the binding signal was 0.184 E-score.

The sequence CCACGTGC gave a binding signal of -0.411 E-score. Take AATTAACT: the binding signal was 0.287 E-score. With CCCGGGCA, the binding signal is -0.326 E-score. In turn, GATAGACA had a binding signal of 0.058 E-score.

Regarding ACCCGGGG, the binding signal was -0.207 E-score.

The sequence CTATTGAG gave a binding signal of 0.0169 E-score. As for AGTAAGTC, the binding signal is 0.247 E-score. The same measure for AGTGTCAG: -0.0316 E-score; for ACATTACA: 0.144 E-score.

For ATTTCGTC, the binding signal worked out at 0.115 E-score. For AGATGTCG, the binding signal is -0.206 E-score.

The sequence ACAATTCT showed a binding signal of 0.0549 E-score. As for TCAACCGA, the binding signal is -0.0752 E-score. In turn, CAGCGGAC displayed a binding signal of 0.0305 E-score. Sequence GAATAGTA showed a binding signal of 0.325 E-score.

The sequence CCACGTAC registered a binding signal of -0.00117 E-score.

For GACGATGC, the binding signal was -0.0427 E-score. AATTTTGA yielded a binding signal of 0.199 E-score. CGAGATAA came in with a binding signal of 0.06 E-score. In the case of AAGTGTAA, the binding signal was 0.129 E-score. As to ATACTTTG, the binding signal came to 0.151 E-score. To ATAAATAC belongs 0.287 E-score.

As to ATACCTCA, the binding signal was 0.138 E-score. Sequence ACACCACA returned a binding signal of 0.171 E-score. In turn, GGAGTCTA displayed a binding signal of 0.0216 E-score. On to CTCGCGAC, for which the binding signal was -0.158 E-score. The sequence ACTTAATC gave a binding signal of -0.000641 E-score. In turn, GGCCAATA came in with a binding signal of -0.0148 E-score. For CACAAGTG, the binding signal is -0.00102 E-score.

Sequence TAGCCACA had a binding signal of -0.0832 E-score. Turning to CGTGACCA, the binding signal is -0.101 E-score.

GGGCCACA showed a binding signal of -0.243 E-score.

Regarding GACGTGGC, the binding signal was -0.0403 E-score.

As for ACGATCCA, the binding signal is -0.0275 E-score. Sequence AACCAAGG showed a binding signal of -0.202 E-score.

CGGGAACA gave a binding signal of -0.297 E-score. Sequence CTGAGCTA came in with a binding signal of 0.0769 E-score. CACTACAC showed a binding signal of 0.0572 E-score. The same measure for CCAAGAAG: -0.168 E-score.

Consider CGCTCGGC, for which the binding signal is -0.407 E-score. TCGCAAAA showed a binding signal of 0.0879 E-score. In the case of ATCGTTCA, the binding signal was -0.0994 E-score. The sequence CACTTACG showed a binding signal of -0.0754 E-score. The sequence ACGTCGCA returned a binding signal of -0.108 E-score.

The sequence ACCCTTAT had a binding signal of 0.126 E-score. CAATTAGA: the binding signal came out at 0.145 E-score.

Regarding GCTTGTGA, the binding signal was -0.0166 E-score. CGCTGTAC: the binding signal was -0.0897 E-score. ACTAATGG: the binding signal came out at 0.148 E-score. In turn, GCGATCTA displayed a binding signal of 0.258 E-score.

In turn, TCCAAGAA showed a binding signal of 0.0241 E-score. Sequence AATTCATA returned a binding signal of 0.193 E-score. In turn, CGCTTGTC returned a binding signal of -0.216 E-score. The sequence GTTTCATA yielded a binding signal of 0.141 E-score. To AGTATGGG belongs 0.121 E-score; to ATCGGTTG, -0.0335 E-score. As for CGATGGCA, the binding signal is -0.04 E-score. CGAATACG registered a binding signal of 0.0158 E-score.

For CGCGGACC, the binding signal was -0.173 E-score. GTTGACTA displayed a binding signal of 0.21 E-score. GCATTTAA had a binding signal of 0.119 E-score. As for CTCATTCC, the binding signal is -0.0912 E-score. In the case of ATCCTGGG, the binding signal was -0.0476 E-score. The same measure for CTGCTTTA: 0.0209 E-score; for CGTCAGTC: -0.134 E-score.
